Results on 42 compounds are retold here after ChEMBL document CHEMBL4888484, “Replenishing the malaria drug discovery pipeline: Screening and hit evaluation of the MMV Hit Generation Library 1 (HGL1) against asexual blood stage Plasmodium falciparum ,using a nano luciferase reporter read-out” (2022).

Screen size: about 150,000 compounds; about 540 (0.36%) showed an effect of 50% or more. This is one part of the list.

The assay concerns Plasmodium falciparum. The assay can be described thus: Primary screen in NF54 nanoGlo assay, in single point, at 2uM, 72h; a lower Z score goes with more inhibition. The note with it: timepoint 72 hour. The class given is functional, Erythrocyte.
In general, % Inhibition refers to the relative decrease from the control value, in per cent. On to `COC(=O)[C@@H]1CCCN1C(=O)c1cc(C)sn1`, for which the “% Inhibition” value is -6% and the Z score came out at 0.93.

For `COC(=O)N1CCCC[C@H](NC(=O)CCCc2nc(-c3ccccc3C)no2)C1`, the “% Inhibition” value came to 5% and the Z score was -0.71.

`Cc1cc(CN(C)C(=O)c2cccc(-c3cc(C)nc(C)c3)c2)on1`: the “% Inhibition” value is recorded as -10% and the Z score is given as 1.21.

Consider `C[C@H]1CCC(=O)N1c1ccc(NC(=O)c2cc(C#N)cn2C)cc1`, for which the “% Inhibition” value is recorded as -6% and the Z score is recorded as 1.16.

With `COc1ccccc1CC(=O)Nc1ccc2[nH]c(=O)[nH]c2c1`, the “% Inhibition” value is given as -3% and the Z score is listed as 0.47.

With `CO[C@H]1[C@@H]2CC[C@H]1CN(C(=O)NCc1cnc(C)cn1)C2`, the “% Inhibition” value is listed as -8% and the Z score was 1.11.

As for `CCCN1Cc2cc(OC)ccc2O[C@@H](CC)C1`, the “% Inhibition” value is on record as -4% and the Z score was found to be 0.52.

In the case of `CC1CCN(C(=O)c2ccc(NC[C@H](O)CN3CCCCC3)nc2)CC1`, the “% Inhibition” value was determined as 6% and the Z score is reported as -0.65.

In the case of `CC[C@@H](CO)N(Cc1cccs1)Cc1ccc(OC)c(O)c1Cl`, the “% Inhibition” value is recorded as -7% and the Z score is on record as 1.31.

Regarding `N[C@H]1CN(Cc2ccn[nH]2)C[C@@H]1c1ccccc1F`, the “% Inhibition” value is given as 7% and the Z score was -1.07.

Turning to `O=C(Cn1cnc2ccccc2c1=O)NCc1nnc2n1CC[C@H](C(F)(F)F)C2`, the “% Inhibition” value is on record as -8% and the Z score came out at 0.98.

For `NC1(CC(=O)N2CCC[C@H]2c2cccc(Cl)c2)CCC1`, the “% Inhibition” value was 3% and the Z score is -0.38.

With `COc1ccc(-c2cc3ccccc3n2C[C@@H](O)Cn2c(C)nc3ccccc32)cc1`, the “% Inhibition” value was -12% and the Z score came out at 1.58.

Take `O=C(COc1ccccc1F)N1C2C=CCC1CC2` (centres undefined): the “% Inhibition” value is recorded as -7% and the Z score was found to be 1.26.

Regarding `Cn1cc(C2C[S+]([O-])CCN2C(=O)c2ccc(C(F)F)nc2)cn1` (centres undefined), the “% Inhibition” value is given as -17% and the Z score was 2.02.

As to `CC1(C)C[C@@]2(CCO1)NC(C)(C)C(=O)N2CC1CCCC1`, the “% Inhibition” value is listed as 2% and the Z score is listed as -0.21.

Regarding `Cc1ccc2nc(-c3cc(NC(=O)COc4ccc5ccccc5c4)ccc3Cl)oc2c1`, the “% Inhibition” value is on record as -1% and the Z score is 0.13.

`O=c1c2ccccc2nc(N2CCN(c3cccc(C(F)(F)F)c3)CC2)n1-c1ccccc1`: the “% Inhibition” value was -6% and the Z score is reported as 0.7.

Take `COc1cccc2c1NC(=O)C[C@H]2C(=O)N1CCN(c2ncccn2)CC1`: the “% Inhibition” value was -8% and the Z score was determined as 1.15.

On to `COc1ccc(Cl)c2sc(N(C[C@H]3CCCO3)C(C)=O)nc12`, for which the “% Inhibition” value is on record as -9% and the Z score is recorded as 1.45.

For the compound `C[C@H]1CCCc2ncc(C(=O)NCC3(C4(O)CCC4)CC3)n21`, the “% Inhibition” value was 0% and the Z score turned out to be 0.01.

Take `CN(CCCc1cc(-c2ccccc2)n[nH]1)C(=O)c1ccc2c(c1)CCC(=O)N2`: the “% Inhibition” value is recorded as 5% and the Z score is -0.7.

For `Cc1cccc(C(=O)NCc2ccc3c(c2)CCN3C(=O)c2ccccc2)c1`, the “% Inhibition” value is reported as -7% and the Z score is listed as 1.33.

In the case of `O=C(CN1CCCCS1(=O)=O)NCCC1CCCCC1`, the “% Inhibition” value is listed as -12% and the Z score is recorded as 1.46.

`COc1ccc2oc(C(=O)N3CC[C@H](Oc4ncccn4)C3)cc2c1`: the “% Inhibition” value is -29% and the Z score came to 4.5.

Turning to `CC(C)(O)[C@@H]1CCCN1C(=O)Cc1ccc2cn[nH]c2c1`, the “% Inhibition” value is 5% and the Z score is -0.63.

For the compound `CCN(CC)S(=O)(=O)N[C@@H](C)c1ncnn1C`, the “% Inhibition” value is -5% and the Z score turned out to be 1.04.

On to `O=C(NCc1cc(F)cc(C(F)(F)F)c1)C1CCN(CCO)CC1`, for which the “% Inhibition” value is recorded as -13% and the Z score was 1.38.

Consider `COc1ccc(S(=O)(=O)NCc2noc(C(C)C)n2)cc1C(C)C`, for which the “% Inhibition” value amounted to 2% and the Z score is reported as -0.35.

For the compound `O=C(Nc1ccc(OCc2cccc3cccnc23)cc1)c1ccco1`, the “% Inhibition” value is given as -2% and the Z score was found to be 0.38.

Take `C[C@@H](CNC(=O)C1CCC(O)CC1)N1CCCCC1=O` (some centres undefined): the “% Inhibition” value is reported as -7% and the Z score was 0.71.

Turning to `CC(C)c1ccc(OCc2ccc(C(=O)N3CCc4ccccc4C3)o2)cc1`, the “% Inhibition” value is -49% and the Z score came to 5.74.

Turning to `O=C(NCCN1CCOCC1)[C@H]1CCc2nn(CCOc3ccccc3)c(=O)n2CC1`, the “% Inhibition” value is -5% and the Z score is reported as 0.83.

Regarding `COc1ccc(N2CCN(Cc3cccn3-c3nnc(N4CCOCC4)s3)CC2)cc1`, the “% Inhibition” value is -2% and the Z score was 0.18.

Consider `CN(Cc1ccccn1)S(=O)(=O)[C@H]1CCCN(C(=O)c2cccc(Cl)c2)C1`, for which the “% Inhibition” value is given as 5% and the Z score is listed as -0.57.

`Cc1cnc(CN2CCCC[C@@H]2Cn2cncn2)cn1`: the “% Inhibition” value is recorded as 9% and the Z score is given as -1.34.

As to `C=Cc1cccc([C@H]2N[C@](CO)(c3ccccc3)[C@H]3CN(C)C[C@@H]23)c1`, the “% Inhibition” value is -1% and the Z score stood at 0.2.

For `O=C(Cc1cccc2ccccc12)N[C@H]1CC(=O)N(c2ccc(F)cc2)C1`, the “% Inhibition” value was -9% and the Z score worked out at 1.71.

Consider `O=C(NC[C@@]1(O)C=CCCC1)c1ccc2c(c1)OCO2`, for which the “% Inhibition” value is -2% and the Z score was determined as 0.38.

As to `C=CCCS(=O)(=O)N1CCC(n2ccnn2)CC1`, the “% Inhibition” value was 0% and the Z score is listed as 0.03.

`Cc1ccc(CNc2nc(N3CCOCC3)nc3c2cnn3C)cc1`: the “% Inhibition” value was found to be 9% and the Z score was -1.68.

On to `Cn1cc(C2CCN(C(=O)N[C@H]3CCCOc4cc(F)ccc43)CC2)cn1`, for which the “% Inhibition” value is -1% and the Z score turned out to be 0.15.
